Experimental data taken from PubChem BioAssay AID588342 (National Center for Advancing Translational Sciences (NCATS), 2011).
Several values for one entry are separate records, joined by “and”; a condition that tells them apart may be missing. Equal values may be shown once. In all, about 360,000 compounds went through this assay and about 25,000 (6.9%) were called active. Inconclusive results, whose numbers are uncertain, are shown with a selection of clear calls. Calls come from the whole dose curve; as a rule, active = well fitted inhibition curve with a large enough effect; inconclusive = small, poorly fitted or top-dose-only effect; inactive = flat fitted curve, though single readings scatter. Potencies of inconclusive entries are doubtful fits and often do not repeat.

target: Luciferin 4-monooxygenase (Photinus pyralis) (UniProt P08659); assay: qHTS profiling assay for firefly luciferase inhibitor/activator using purifed enzyme and Km concentrations of substrates (counterscreen for miR-21 project); details: purified FLuc, luminescence inhibition; series mostly up to 57.5 µM; activity change, negative = inhibition: at the top concentration; note: nearly all actives have a fitted effect of over 55% in size;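 for activity change, negative = inhibition: plate controls were vehicle for no effect and reference inhibitor for full effect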
Sequence of UniProt P08659 (P08659 whole entry, looked up): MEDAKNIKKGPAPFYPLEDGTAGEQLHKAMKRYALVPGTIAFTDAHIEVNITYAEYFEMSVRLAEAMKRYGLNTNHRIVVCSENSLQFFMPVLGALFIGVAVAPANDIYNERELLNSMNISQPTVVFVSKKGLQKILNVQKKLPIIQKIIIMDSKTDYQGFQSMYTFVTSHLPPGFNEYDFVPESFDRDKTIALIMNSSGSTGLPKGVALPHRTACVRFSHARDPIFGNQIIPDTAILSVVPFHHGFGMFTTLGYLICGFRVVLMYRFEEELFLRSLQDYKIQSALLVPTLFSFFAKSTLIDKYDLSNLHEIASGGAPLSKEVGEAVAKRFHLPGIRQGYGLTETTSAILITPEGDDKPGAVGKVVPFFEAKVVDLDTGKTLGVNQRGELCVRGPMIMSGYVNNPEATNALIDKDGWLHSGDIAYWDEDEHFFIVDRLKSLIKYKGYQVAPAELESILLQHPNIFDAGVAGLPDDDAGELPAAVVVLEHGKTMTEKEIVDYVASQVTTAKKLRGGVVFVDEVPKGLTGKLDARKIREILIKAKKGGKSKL
How it was run: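 Biochemical qHTS of compounds, final roughly 60 µM downward over six points, against 10 nM purified firefly luciferase using Km concentrations of substrates (10 uM D-luciferin, 10 uM ATP) in Tris acetate pH 7.5 buffer; luminescence output.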
Potency is the fitted concentration of half-maximal effect; tags give direction and shape of the fitted curve.

Compound	Potency	activity change, negative = inhibition
O=C(c1cc2ccc3cccnc3c2[nH]1)N1CCN(c2ccccc2)CC1	inconclusive: 37.9 µM [inhibitor, single point]	–
CCOC(=O)Nc1ccc2c(c1)Nc1ccccc1S2	inconclusive: 23.9 µM [inhibitor, partial curve]	–
Cn1c(=O)c(C(=O)NCCc2ccccc2)c(O)c2ccccc21	inconclusive: 37.9 µM [inhibitor, partial curve, poor fit]	–
C/C(=N\NC(=O)c1nn(C)c(C)c1Br)c1cccc(NC(=O)c2ccc(F)cc2)c1	active: 1.9 µM	–
COc1ccc(S(=O)(=O)N(C)C)cc1NC(=O)CSc1nnc(-c2cccnc2)o1	–	inactive: -2.09%
Cc1cc(/C=C2/SC(=O)N(CC(=O)OC(C)C)C2=O)c(C)n1C	active: 15.1 µM	–
Cc1nn(-c2ccccc2)c(Cl)c1/C=N/O	inconclusive: 30.1 µM [inhibitor, partial curve, poor fit]	–
COc1cccc(-c2nnn(C/C(N)=N/O)n2)c1	–	inactive: -19.3%
CSc1nc(-c2ccco2)nn1S(=O)(=O)c1ccccc1	inconclusive: 37.9 µM [inhibitor, single point]	–
CCN(CC)c1ccc(NC(=O)/C=C\c2ccccc2Cl)cc1	active: 2.69 µM	–
COc1ccc(NC(=O)CSc2nnc(NC(=O)c3ccco3)s2)cc1	active: 15.1 µM	–
Cc1ccc(O)c(CNc2ccccn2)c1	inconclusive: 30.1 µM [inhibitor, single point]	–
CCN1C(=O)[C@H]2[C@@H](c3ccc(-c4ccc(OC)cc4)cc3)N[C@@](C)(C(=O)OC)[C@H]2C1=O	inconclusive: 37.9 µM [inhibitor, partial curve, poor fit]	–
Cc1cccc(NC(=O)c2ccccc2Br)n1	inconclusive: 23.9 µM [inhibitor, single point]	–
COc1ccc(N2C(=O)[C@@H]3[C@H](C2=O)[C@H]2C=CC=NN2[C@@H]3C(=O)Nc2ccc(Cl)cc2)cc1	inconclusive: 23.9 µM [inhibitor, single point]	–
CCOc1ccc(/C=C2/Sc3ccc(C(=O)N4CCOCC4)cc3N(C)C2=O)cc1OC	–	inactive: -15.4%
CN(C)C(=O)COC(=O)c1ccccc1Nc1ccc(SC(F)F)cc1	active: 26.9 µM	–
O=C(c1cc(-c2ccco2)on1)N1CCCc2ccccc21	inconclusive: 33.8 µM [inhibitor, partial curve, poor fit]	–
CCCn1c(/N=C/c2ccc3c(c2)OCO3)nc2ccccc21	active: 4.78 µM	–
Cc1ccc(OCc2ccc(C(=O)NNC(=S)NCC3CCCO3)o2)c([N+](=O)[O-])c1 (stereo not given)	inconclusive: 30.1 µM [inhibitor, partial curve, poor fit]	–
C=CCn1c2ccccc2c2nnc(SCCN3CCOCC3)nc21	inconclusive: 26.9 µM [inhibitor, partial curve, poor fit]	–
CC(C)CC(=O)Nc1sc2c(c1C(=O)O)CCCCC2	inconclusive: 21.3 µM [inhibitor, single point]	–
Cn1cc(CN2CCN(Cc3ccccc3)CC2)c(-c2cccc(Cl)c2)n1	–	inactive: 5.16%
COc1cc(/C=C(\C#N)c2nc3ccccc3[nH]2)ccc1OCc1cccc(C(F)(F)F)c1	–	inactive: 0.357%

Compound	Potency	activity change, negative = inhibition
Cn1c(=NC(=O)C2CC2)sc2cccc(F)c21	inconclusive: 26.9 µM [inhibitor, single point]	–
CS(=O)(=O)N(CC(=O)Nc1ccccc1Cl)c1ccc(Cl)cc1	–	inactive: -6.06%
ClCC1CN(Cc2ccccc2Cl)CCO1 (stereo not given)	–	inactive: 0.885%
CCOc1ccc(S(=O)(=O)N2CCN(C(=O)c3oc4ccc(OC)cc4c3C)CC2)cc1	–	inactive: 11.1%
CCc1ccc(-c2nc(CS(=O)CC(=O)NCc3ccc4c(c3)OCO4)c(C)o2)cc1 (stereo not given)	inconclusive: 30.1 µM [inhibitor, single point]	–
COc1ccc(NC(=O)CO/N=C/C(=O)Nc2ccccc2C)c([N+](=O)[O-])c1	inconclusive: 23.9 µM [inhibitor, single point]	–
CC(/C=N/NC(=O)Cn1cnc2ccccc21)=C\c1ccccc1	inconclusive: 13.5 µM [inhibitor, partial curve, poor fit]	–
COc1ccc(CC(=O)Nc2nc3ccc(F)cc3s2)cc1S(=O)(=O)N1CCOCC1	inconclusive: 30.1 µM [inhibitor, single point]	–
COc1cccc(Cn2c(CNC(=O)c3cc([N+](=O)[O-])ccc3Cl)nc3cccnc32)c1	–	inactive: -3.97%
CN(C)/C=C(\C#N)c1nc2ccccc2[nH]1	inconclusive: 42.6 µM [inhibitor, partial curve, poor fit]	–
CC(C)=CC(=O)Nc1nnc(-c2ccccc2C)s1	inconclusive: 37.9 µM [inhibitor, single point]	–
Cc1ccc(/C=N/Nc2ncc(Cl)cc2Cl)s1	active: 6.01 µM	–
COc1cc(C2N=C(c3ccccc3)NO2)cc(Br)c1O (stereo not given)	inconclusive: 37.9 µM [inhibitor, single point]	–
COC(=O)/C(=C\C=C\c1ccccc1)NC(=O)c1ccccc1	inconclusive: 26.9 µM [inhibitor, partial curve, poor fit]	–
Cc1cc(/C=C2\C(=N)N3N=CSC3=NC2=O)c(C)n1Cc1ccccc1	active: 1.35 µM	–
C/C(=N\Nc1ccccn1)c1ccc(S(=O)(=O)NCc2ccco2)cc1	inconclusive: 19 µM [inhibitor, partial curve]	–
CN(C)S(=O)(=O)c1ccc(C(=O)Nc2nnc(-c3ccco3)o2)cc1	–	inactive: -15.4%
CC(C)(C)c1ccc(N=C2SCC(=O)N2Cc2cccs2)cc1	inconclusive: 23.9 µM [inhibitor, partial curve, poor fit]	–
Cc1cc(C(=O)CSc2ncnc3ccccc23)c(C)n1C1CC1	inconclusive: 5.36 µM [inhibitor, full curve]	–
CSc1nc(N)c(C(=O)NC2CCCCC2)s1	inconclusive: 37.9 µM [inhibitor, partial curve, poor fit]	–
Cc1c(C(=O)Oc2cccc3cccnc23)cccc1[N+](=O)[O-]	inconclusive: 33.8 µM [inhibitor, partial curve, poor fit]	–
COc1ccc(NC(=O)CSc2nnc(NC(=O)Nc3ccccc3)s2)cc1OC	inconclusive: 1.9 µM [inhibitor, full curve]	–
O=[N+]([O-])c1cccc(-c2nc(-c3ccncc3)no2)c1	inconclusive: 16.9 µM [inhibitor, partial curve]	–
Cn1cc(C(=O)C(=O)N2CCc3ccccc32)c2ccccc21	–	inactive: 0.806%

Compound	Potency	activity change, negative = inhibition
O=C(CSc1nc(=O)n(CCN2CCOCC2)c2c1CCC2)Nc1ccccc1	–	inactive: 3.6%
CCN(CC)c1ccc2c(C)c(-c3ccc(N)cc3)c(=O)oc2c1	active: 23.9 µM	–
COC(=O)c1cccc(-c2ccc(/C=N/N3C(=O)C4C5C=CC(C6CC56)C4C3=O)o2)c1 (stereo not given)	inconclusive: 26.9 µM [inhibitor, single point]	–
Cc1cccc(NC(=S)NNC(=O)c2ccc(O)cc2O)c1C	inconclusive: 26.9 µM [inhibitor, partial curve, poor fit]	–
Cc1cccc(-c2nc(C#N)c(NCc3ccco3)o2)c1	active: 10.7 µM	–
CN1CCc2c(sc3c2C(=O)NC(c2cn(Cc4ccccc4)c4ccccc24)N3)C1 (stereo not given)	inconclusive: 30.1 µM [inhibitor, partial curve, poor fit]	–
Cc1ccc(-c2nnc(SCC(=O)N/N=C/c3cccs3)n2-c2ccc(C)cc2)cc1	–	inactive: 2.81%
CCOC(=O)c1sc2ccc(S(=O)(=O)N3CC(C)CC(C)C3)cc2c1N (stereo not given)	–	inactive: 3.53%
CCCCCCCCNC(=S)NCCN1CCCCC1	–	inactive: 1.77%
CC(C)c1ccc(NC(=O)C2CCCN(S(=O)(=O)c3ccc4c(c3)C(C)(C)C(=O)N4C)C2)cc1 (stereo not given)	inconclusive: 15.1 µM [inhibitor, partial curve, poor fit]	–
COc1ccc(NC(=O)COC(=O)c2ccc(F)cc2F)cc1	inconclusive: 37.9 µM [inhibitor, single point]	–
Cc1nc(SCC(=O)Nc2cc(C)on2)c2c(=O)n(C)c(=O)n(C)c2n1	–	inactive: -0.632%
COc1ccccc1Nc1nn2c(=O)c3ccc(C(=O)N4CCCC(C)C4)cc3nc2s1 (stereo not given)	inconclusive: 42.6 µM [inhibitor, partial curve, poor fit] and inconclusive: 37.9 µM [inhibitor, partial curve, poor fit]	–
O=C1OC(c2ccc(F)cc2)=N/C1=C\C=C/c1ccccc1	inconclusive: 10.7 µM [inhibitor, partial curve]	–
O=C(c1cc(-c2ccncc2)nc2ccc(Cl)cc12)N1CCN(Cc2ccc3c(c2)OCO3)CC1	inconclusive: 26.9 µM [inhibitor, partial curve, poor fit]	–
COc1ccc(Nc2nc(N)c3cc(OC)c(OC)cc3n2)cc1	active: 15.1 µM	–
Cc1ccccc1CNC(=O)Cc1cccs1	inconclusive: 37.9 µM [inhibitor, partial curve, poor fit]	–
CC(=O)c1ccc(OCc2cc(C(=O)N3CCCCCCC3)no2)cc1	inconclusive: 23.9 µM [inhibitor, partial curve, poor fit]	–
CCN(c1ccccc1)S(=O)(=O)c1ccc(C(C(=O)OC)C(=O)OC)c([N+](=O)[O-])c1	–	inactive: -0.138%
COc1ccc(-c2nnc(NC(=O)c3cc(C)on3)s2)cc1	active: 12 µM	–
CC1(C)CC(=O)N(c2cc(Cl)ccc2Cl)C(=O)C1	–	inactive: 1.57%
Cc1ccc(NC(=S)NNC(=O)CSc2nc3ccccc3c(=O)n2-c2ccc(C)cc2)cc1	inconclusive: 37.9 µM [inhibitor, partial curve, poor fit]	–
